Source: patent US7655454B1, “Bacteriological culture medium for Campylobacteriaceae species” (priority 2005, dated 2010)

Key:
[1] = test system: Campylobacter jejuni subsp. doylei ATCC 49349; conditions: P<0.05; for absorbance compared with isolates grown in the control media: approximately 20, 30, 40 and 50 mM acid
[2] = test system: Campylobacter fetus subsp. fetus ATCC 27374

CC(O)C(=O)O (racemic) [Lactic, DL-lactic acid]
absorbance compared with cultures grown in non-supplemented media ([1]; approximately 50 mM acid): not significantly different | absorbance compared with cultures grown in non-supplemented media ([2]; approximately 50 mM acid, P<0.05): not significantly different

O=C(O)CC(O)C(=O)O (racemic) [Malic, DL-malic acid]
absorbance compared with isolates grown in the control media [1]: significantly higher | absorbance at approximately 50 mM compared with approximately 40 mM of the same acid ([2]; P<0.05): significantly lower

O=C(O)CC(O)(CC(=O)O)C(=O)O [Citric, citric acid]
OD of cultures compared with cultures in non-supplemented media [2]: inability of citric acid to stimulate Campylobacter growth at any level of supplementation

O=C(O)/C=C/C(=O)O [Fumaric, fumaric acid]
absorbance compared with isolates grown in the control media [1]: significantly higher

O=C(O)CCC(=O)O [Succinic, succinic acid]
absorbance compared with isolates grown in the control media [1]: significantly higher
